The other results are listed elsewhere or left out. The list includes weakly bound sequences.
Biological target: MaxL homodimer (UniProt P61244)
Experiment: universal protein-binding microarray (PBM)
Settings: PBS-based mixture, 10 nM His-tagged protein dimer, 2% milk, 200 ng/uL BSA, 50 ng/uL salmon testes DNA, 0.02% TX-100; detection with Alexa 488 anti-His …; high values mean tight binding; most listed sequences are background and not binding sites; double strand, one strand shown

UniProt P61244, sequence (P61244 whole entry): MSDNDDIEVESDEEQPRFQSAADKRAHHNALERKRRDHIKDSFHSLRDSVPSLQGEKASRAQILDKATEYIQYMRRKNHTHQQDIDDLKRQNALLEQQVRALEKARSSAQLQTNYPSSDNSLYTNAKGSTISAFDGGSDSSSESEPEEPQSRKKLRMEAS

Sequence | binding signal (normalized occupancy)
AAGCCAGC | 0.0666
TTACACAA | 0.0758
GCGGTAAC | 0.0714
ATTTCCTC | 0.0778
CCGGTCAA | 0.073
GGCGACAC | 0.0713
ACGACTCA | 0.0789
CAACATAA | 0.0815
ATTTGGAG | 0.0716
ACGTTCCT | 0.0819
CGCAAATC | 0.0728
AGTGTATA | 0.0852
ATACAGTC | 0.0816
CGGACCTA | 0.0696
GGCAGTAA | 0.0753
CTTAAAGA | 0.0714
AAGACACG | 0.0809
AAACGCCG | 0.0685
AGGCTCTA | 0.0717
GTCGACCA | 0.073
AGCCCGTC | 0.0707
AGATACGA | 0.0754
ACGTTGCC | 0.0843
CGGAGTCC | 0.0642
CCGGAAAC | 0.07

Sequence | binding signal (normalized occupancy)
CTCCACGC | 0.101
ATGCATGA | 0.0997
ACACCGCG | 0.082
CATATTGA | 0.0806
GAAAATCC | 0.0708
CCCCAGTC | 0.0728
CCCGTGTC | 0.0814
ACCACACC | 0.0856
AAGGCGAA | 0.0734
CAGCTGCA | 0.0759
AGTCGCTG | 0.0715
TATCTTGA | 0.077
CAGACCGC | 0.0735
CGAGAAGC | 0.0744
CATGACGC | 0.0855
TACAGATA | 0.0789
CCTGCCGA | 0.0703
ATTGTGTC | 0.0772
ACTATGCT | 0.0755
ACTATTTA | 0.0729
TGGCAACA | 0.0766
ACATCCGA | 0.0718
AGTGTAAG | 0.077
ACGATGTC | 0.0826
ATCTCAGC | 0.0746

Sequence | binding signal (normalized occupancy)
ATTACTAC | 0.0834
AAGGACAA | 0.0706
AACTTCGA | 0.0706
ATCCCTGC | 0.0783
CTGCCCCA | 0.0784
CGTGCTTA | 0.0885
CTCTAGCC | 0.0654
GCTTGGAC | 0.0725
CATAACCG | 0.0784
CGACGCTA | 0.0724
CAGTTACG | 0.0717
AGGAGAAG | 0.0766
TGCGCGAA | 0.0717
CAGAGATC | 0.0735
GGTTCATA | 0.0826
GCAAAAGC | 0.0703
CTATGCTA | 0.0768
ATGTGCAA | 0.0875
CGATCTGC | 0.0717
CTTTGGCC | 0.0687
CTTTCATA | 0.0748
ACAAATCA | 0.0773
CGGGAAAC | 0.0725
AGGATGAC | 0.0813
ACACGGGT | 0.0852

Sequence | binding signal (normalized occupancy)
ATCCAGCG | 0.0704
CCGCTACC | 0.0743
ACACGACC | 0.0822
ATGACGCC | 0.0776
AGGATACT | 0.0731
AATAAGCG | 0.0726
ACCCCACC | 0.0832
AATCCCGC | 0.0737
ATTACTTC | 0.074
CCTCGGCG | 0.0728
TACAAAAA | 0.0728
TAGGCAGA | 0.069
TTCGACAA | 0.0727
AGGAAGGC | 0.0736
CCGATCTC | 0.0688
ACTCCATA | 0.0898
ATAACAGG | 0.0768
CCGATCTA | 0.0769
AGGCCAAA | 0.0651
ATATTCTC | 0.0852
CAGGCTTC | 0.0633
CCTCTTGC | 0.07
ACCACTTC | 0.0785
CACTAAAC | 0.0792
AGCTGGAA | 0.0709

Sequence | binding signal (normalized occupancy)
TTCTCAAA | 0.0808
GCAGAACA | 0.0764
ATACAGGA | 0.0784
AACAGGAT | 0.0759
GTCTTTTA | 0.0741
AATGAACC | 0.0718
CAAAGTCA | 0.0818
ACTGTGGG | 0.0757
TATCACCA | 0.0825
CGGCCTTC | 0.0657
ACCGCCCC | 0.0773
AGACAGTG | 0.0728
ACATCAAC | 0.0756
AGGCAGAG | 0.0677
GCCGGACC | 0.0716
GCCATGCC | 0.0963
GAACGTGA | 0.0801
ATCAAATC | 0.0778
AAATCTAG | 0.0755
TGCAAACA | 0.0821
CGGAGGCA | 0.0694
TTGTGAAA | 0.0759
AGTGGGTG | 0.0863
AAGTCCGA | 0.0717
CCCATCGC | 0.0739

Sequence | binding signal (normalized occupancy)
ACATGCCT | 0.0828
AAACGTGG | 0.123
ACTTCGAT | 0.0748
ATCCCATG | 0.0946
AGGAAACG | 0.0765
TCTAAAAA | 0.0732
CACCCGCG | 0.0782
AATCGGGC | 0.071
GTTTTTGA | 0.0713
ACAAGGCT | 0.0781
CCGTGACC | 0.075
GATCTGCC | 0.0734
ATTATGAG | 0.0848
CCAATAAC | 0.0763
AAAATTGA | 0.0757
CCGATCCA | 0.0802
CTTCTCAC | 0.0785
CTGCTATC | 0.0712
CACGTTGC | 0.131
AACCAGTA | 0.074
AATTGCCC | 0.0741
GTCATAAA | 0.076
CTCTCTCA | 0.076
ACACTGTA | 0.0803
CCGAATAG | 0.0733

Sequence | binding signal (normalized occupancy)
GCATTTGA | 0.0815
CAAAACTA | 0.0709
GCGTCTCA | 0.0718
ACTTTGTA | 0.0753
GAATCAGA | 0.0774
GCGTAACA | 0.0739
AAGATCAT | 0.0825
AGAATAAC | 0.0823
GGACTACC | 0.0742
CGTATCCC | 0.0805
CATGTTAA | 0.0923
ATGCTAGA | 0.0794
CAGAGTAA | 0.0689
GAGTAGGA | 0.0735
GCAACTAA | 0.0688
CTCTGGAA | 0.0706
AGCTGGCG | 0.0693
ATGAATTC | 0.0754
ACAATGTC | 0.079
CAGCTCCG | 0.0677
CCGGTGTA | 0.0821
AGACCTCC | 0.0702
CCAGAGGG | 0.064
ACTACGCG | 0.0703
CCGAGTAG | 0.0732

Sequence | binding signal (normalized occupancy)
CGACCTTC | 0.0701
CGGATTAC | 0.0742
AGGGCATG | 0.092
CCGCCAGG | 0.0711
ACCCGTAG | 0.0728
ACGTCTTG | 0.0724
CGCGAAAA | 0.0702
CTCATTTA | 0.0789
CAACGTTA | 0.0767
ATGAGGGA | 0.0908
AATATGCT | 0.0802
CCGCGGCA | 0.0723
CGGTGTTC | 0.0776
CTATTAGA | 0.074
CTATTGAC | 0.0725
CCGCAGCG | 0.065
ATAAGTAT | 0.0786
CAGGACAA | 0.074
AAGCCATA | 0.0746
ACGGCATA | 0.0754
CTGTATGC | 0.076
AGTGAGTC | 0.0739
ACTTACGC | 0.0773
GTTAATAA | 0.0741
AGCCGAAA | 0.0717

Sequence | binding signal (normalized occupancy)
AGACCTCT | 0.0673
ATAGGAAA | 0.0763
CGGTTGTA | 0.0742
CTCTTATC | 0.0773
AACTACCG | 0.0735
ACCAAACC | 0.073
CTTCAGCA | 0.0773
CACTTCGA | 0.0721
CTAACGGA | 0.0682
TGGAATAA | 0.0735
CAAAGCGG | 0.0658
CTTAGTGA | 0.0725
ACTTAACT | 0.0756
CCCTCCCG | 0.0755
CTCTCCTA | 0.0741
ATAATCTG | 0.0723
TACCGGCA | 0.0779
GATAAAAA | 0.0813
GAACCTCC | 0.0739

From article PMC4242493
